Results taken from a collection of fitness landscapes (doi:10.1038/s41467-024-54723-y).
The full ranking holds about 18,000 sequences; the median of “TetR repression strength (sort-seq, GFP reporter)” is about 0.23, and the highest 2% start at about 0.68. This is one part of the list.

These sequences were tested against TetR (class B, Tn10) (UniProt P04483) (assay: TetR repression strength (sort-seq, GFP reporter) (relative to tetO2 = 1); higher = stronger repression). Settings: E. coli.
Chain of UniProt P04483 (P04483 whole entry): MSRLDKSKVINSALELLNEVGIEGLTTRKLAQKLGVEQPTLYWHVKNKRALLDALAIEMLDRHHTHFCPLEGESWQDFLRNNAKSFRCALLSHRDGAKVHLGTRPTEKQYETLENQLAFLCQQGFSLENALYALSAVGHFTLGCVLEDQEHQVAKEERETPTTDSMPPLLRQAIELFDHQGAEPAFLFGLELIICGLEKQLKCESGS
Method in brief: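 Escherichia coli SIG10-MAX cells carried a low-copy plasmid library in which eight operator positions were randomized between a constitutive promoter and sfGFP, and TetR was expressed constitutively. After 5 h of growth at 37 °C in LB with 50 µg/mL chloramphenicol, 10^6 cells were FACS-sorted into 13 fluorescence bins, and each bin was Illumina-sequenced. Repression strength was the top bin index plus one minus the read-weighted mean bin, divided by the value for the unaltered operator. Across three independent transformations, only library members with ≥30 reads in every replicate and a CV ≤0.5 were averaged.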
Sequence TCCCTAAAAGTGTAAGAGA has a TetR repression strength of 0.447. TCCCGTCAAGTAATTGAGA showed a TetR repression strength of 0.387. Sequence TCCCGTCGAGTTAATGAGA has a TetR repression strength of 0.641. Sequence TCCCTGGCAGTTCGAGAGA has a TetR repression strength of 0.344. In the case of TCCCGGTCAGTGCTCGAGA, the TetR repression strength is reported as 0.438. TCCCACAGAGTAGGTGAGA showed a TetR repression strength of 0.0401. TCCCTTAGAGTCCCCGAGA was tested, and the TetR repression strength was 0.295. Work on TCCCAGGAAGTCGGAGAGA yielded a TetR repression strength of 0.274. TCCCCCTTAGTGCTGGAGA gave a TetR repression strength of 0.422. With TCCCGCGTAGTCCTCGAGA the TetR repression strength was 0.294. In the case of TCCCGACTAGTGAGTGAGA, the TetR repression strength is reported as 0.677. Sequence TCCCCACTAGTGAAGGAGA has a TetR repression strength of 0.203. Sequence TCCCGGGTAGTGCTTGAGA has a TetR repression strength of 0.253. TCCCGGTAAGTACCTGAGA showed a TetR repression strength of 0.0225. With TCCCCTCCAGTGGGTGAGA the TetR repression strength was 0.225. TCCCAAAAAGTAGCAGAGA showed a TetR repression strength of 0.273. TCCCGGCAAGTCCTGGAGA was tested, and the TetR repression strength was 0.284. In the case of TCCCTCATAGTGCCAGAGA, the TetR repression strength is reported as 0.504. In the case of TCCCATTAAGTACCGGAGA, the TetR repression strength is reported as 0.104. TCCCACAAAGTCTGTGAGA showed a TetR repression strength of 0.513. For TCCCATTTAGTTGGAGAGA, the TetR repression strength was 0.352. TCCCACTGAGTGGATGAGA gave a TetR repression strength of 0.143. TCCCCTACAGTTAGAGAGA gave a TetR repression strength of 0.521. With TCCCTCGAAGTTGTTGAGA the TetR repression strength was 0.36. Sequence TCCCCTGAAGTTGTGGAGA has a TetR repression strength of 0.0108. TCCCTCGCAGTGACTGAGA was tested, and the TetR repression strength was 0.3. TCCCGATGAGTCCAGGAGA was tested, and the TetR repression strength was 0.209. Work on TCCCTCTCAGTGTAGGAGA yielded a TetR repression strength of 0.507. For TCCCCTTCAGTACGAGAGA, the TetR repression strength was 0.251. In the case of TCCCGTGGAGTAGGTGAGA, the TetR repression strength is reported as 0.24. Sequence TCCCATGCAGTTTGCGAGA has a TetR repression strength of 0.217. Sequence TCCCGCGCAGTCGCTGAGA has a TetR repression strength of 0.504. TCCCTGGGAGTCTGGGAGA showed a TetR repression strength of 0.263. TCCCGATTAGTGGCCGAGA gave a TetR repression strength of 0.329. For TCCCTAGAAGTGAGCGAGA, the TetR repression strength was 0.255. TCCCCGGCAGTCTAGGAGA was tested, and the TetR repression strength was 0.123. Work on TCCCTTGCAGTGGACGAGA yielded a TetR repression strength of 0.354. With TCCCGCAAAGTGCTGGAGA the TetR repression strength was 0.242. TCCCTCTTAGTGGCGGAGA gave a TetR repression strength of 0.183. For TCCCTGCCAGTTCATGAGA, the TetR repression strength was 0.0931. TCCCGAGCAGTGGAGGAGA gave a TetR repression strength of 0.35. Work on TCCCATCAAGTGGGCGAGA yielded a TetR repression strength of 0.0628. TCCCGGTGAGTGTTTGAGA gave a TetR repression strength of 0.493. In the case of TCCCAGTGAGTAACCGAGA, the TetR repression strength is reported as 0.381. Work on TCCCACAAAGTGTCCGAGA yielded a TetR repression strength of 0.308. Sequence TCCCAAGGAGTACGAGAGA has a TetR repression strength of 0.498. Sequence TCCCGCTCAGTCCGGGAGA has a TetR repression strength of 0.506. TCCCGCTTAGTGATTGAGA gave a TetR repression strength of 0.189. In the case of TCCCACCGAGTCCTGGAGA, the TetR repression strength is reported as 0.254. TCCCGCCAAGTGAGGGAGA was tested, and the TetR repression strength was 0.591. TCCCATACAGTAAGTGAGA was tested, and the TetR repression strength was 0.201. For TCCCCTTCAGTGGTCGAGA, the TetR repression strength was 0.05. For TCCCTTAAAGTCAGCGAGA, the TetR repression strength was 0.245. With TCCCGATAAGTTACGGAGA the TetR repression strength was 0.213. Sequence TCCCTTAGAGTTAATGAGA has a TetR repression strength of 0.0915. TCCCGCGAAGTCCGAGAGA was tested, and the TetR repression strength was 0.224. Sequence TCCCTCTTAGTTGCTGAGA has a TetR repression strength of 0.53. For TCCCATCCAGTGTTCGAGA, the TetR repression strength was 0.322. TCCCTCCCAGTCCGGGAGA showed a TetR repression strength of 0.0326. With TCCCTTACAGTGCTGGAGA the TetR repression strength was 0.305. TCCCGTTGAGTTGGGGAGA gave a TetR repression strength of 0.21. Sequence TCCCTTTCAGTTTAGGAGA has a TetR repression strength of 0.227. Sequence TCCCTGCTAGTTCGGGAGA has a TetR repression strength of 0.377. With TCCCGGTGAGTAAAGGAGA the TetR repression strength was 0.241. With TCCCCGCAAGTGAGAGAGA the TetR repression strength was 0.0338. With TCCCAGACAGTGGTTGAGA the TetR repression strength was 0.0646. For TCCCAGTGAGTTATGGAGA, the TetR repression strength was 0.234. TCCCCCCGAGTTTCGGAGA gave a TetR repression strength of 0.194. Work on TCCCTGCCAGTACTCGAGA yielded a TetR repression strength of 0.335. TCCCACCGAGTTAATGAGA showed a TetR repression strength of 0.312. In the case of TCCCAGTTAGTGTATGAGA, the TetR repression strength is reported as 0.145. Work on TCCCGATCAGTGTGGGAGA yielded a TetR repression strength of 0.174. With TCCCGGTTAGTGAATGAGA the TetR repression strength was 0.22. For TCCCGCGAAGTTGTGGAGA, the TetR repression strength was 0.141. TCCCTGGTAGTGGGTGAGA showed a TetR repression strength of 0.12. TCCCGCCTAGTCGTTGAGA showed a TetR repression strength of 0.341. Work on TCCCGATTAGTTGGTGAGA yielded a TetR repression strength of 0.182. TCCCCATCAGTTTGTGAGA showed a TetR repression strength of 0.281. Work on TCCCTGGTAGTCTGAGAGA yielded a TetR repression strength of 0.295. TCCCGCTAAGTATAAGAGA gave a TetR repression strength of 0.207. Sequence TCCCGTTCAGTCAGTGAGA has a TetR repression strength of 0.473. TCCCAAGGAGTCGTCGAGA was tested, and the TetR repression strength was 0.196. Work on TCCCTATGAGTTTTGGAGA yielded a TetR repression strength of 0.291. In the case of TCCCTCCAAGTACCTGAGA, the TetR repression strength is reported as 0.309. In the case of TCCCGTCAAGTCCCAGAGA, the TetR repression strength is reported as 0.339. With TCCCCATCAGTGAGGGAGA the TetR repression strength was 0.355. In the case of TCCCGTGTAGTCGAAGAGA, the TetR repression strength is reported as 0.0462. In the case of TCCCGCCTAGTGTGTGAGA, the TetR repression strength is reported as 0.105. Work on TCCCCGCGAGTGCCTGAGA yielded a TetR repression strength of 0.104. With TCCCGAGAAGTGCCAGAGA the TetR repression strength was 0.312. Sequence TCCCGTGGAGTGACGGAGA has a TetR repression strength of 0.162. TCCCATCAAGTCAGTGAGA showed a TetR repression strength of 0.14. With TCCCACGAAGTGTGGGAGA the TetR repression strength was 0.226. For TCCCATCGAGTCGCGGAGA, the TetR repression strength was 0.213. With TCCCTAACAGTAGCCGAGA the TetR repression strength was 0.311. Work on TCCCGGAAAGTGCGAGAGA yielded a TetR repression strength of 0.0942. In the case of TCCCCGTGAGTCGACGAGA, the TetR repression strength is reported as 0.377. Sequence TCCCCGGTAGTAACGGAGA has a TetR repression strength of 0.249. In the case of TCCCCTCAAGTGGCGGAGA, the TetR repression strength is reported as 0.159. TCCCCGCTAGTAAGAGAGA showed a TetR repression strength of 0.247. TCCCTTGTAGTGGCCGAGA gave a TetR repression strength of 0.442. Sequence TCCCAGAAAGTATGGGAGA has a TetR repression strength of 0.248.
